# Test results reported in PubChem BioAssay AID504832 (National Center for Advancing Translational Sciences (NCATS), 2011).
# In all, about 310,000 compounds went through this assay and about 18,000 (5.8%) were called active. Inconclusive means that the source gave no clear call. Such entries were picked first, then a sample of the others. Calls follow the shape of the dose curve; as a rule, active = well fitted inhibition curve with a large enough effect; inconclusive = small, poorly fitted or top-dose-only effect, or another doubt; inactive = no such curve, though single readings can be large or run the other way. No potency is given beside an inconclusive call; the fits are too rough.
# Test: Primary qHTS for delayed death inhibitors of the malarial parasite plastid, 48 hour incubation
# Conditions: P. falciparum luciferase growth in erythrocytes; series mostly up to 28.7 µM; activity change, negative = inhibition: at the top concentration
# In short: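 Luminescence readout; reporter = integrated firefly luciferase in P. falciparum. RBC culture at 2% hematocrit, 0.1% parasitemia final, 37 C/5% CO2; decreased signal taken as growth inhibition.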
# % is scaled to controls: 0 for no effect and ±100 for the full control effect; potency is read from the fitted curve at half-maximal effect; tags tell the direction and shape of the fitted curve.
Compound,"activity change, negative = inhibition",Potency
Cc1ccc(N=c2ssnc2Cl)cc1,inactive: 13.5%,
CC1CCc2sc(C(=O)Nc3ccc(N4CCOCC4)cc3)cc2C1 (stereo unspecified),,"inconclusive [inhibitor, partial curve, poor fit]"
CC(NC(=S)NCCc1ccccc1)C(c1cccs1)N1CCN(C)CC1 (stereo unspecified),,"inconclusive [inhibitor, single point]"
CCOC(=O)c1[nH]c(C)c(C(=O)c2cc(F)ccc2F)c1C,inactive: 28.9%,
CN(C)/C=C1\C(=O)N(c2ccc(Cl)cc2)CS1(=O)=O,inactive: 38.6%,
O=C(NC1CCCCC1)C(c1ccc(F)cc1)N(C(=O)c1csnn1)C1CCCC1 (stereo unspecified),,"inconclusive [inhibitor, partial curve]"
COc1ccc(-c2nc3cccc(C)n3c2NCC2CCCO2)cc1O (stereo unspecified),inactive: 21.6%,
CC(NS(=O)(=O)c1ccccc1)C(c1cccs1)N1CCN(c2ccccc2)CC1 (stereo unspecified),,"inconclusive [inhibitor, single point]"
COc1cccc(C(=O)NCC2(c3ccc(OC)c(OC)c3)CCCC2)c1,inactive: -20.4%,
CCCCc1nc2ccccc2c(=O)n1NC(=O)c1c(O)c2ccccc2n(C)c1=O,,"inconclusive [inhibitor, partial curve, poor fit]"
CCn1c(SCC(=O)N2CCCCC2)nc2c(c1=O)SCC2,,"inconclusive [inhibitor, full curve]"
Cc1cccc(C2c3[nH]c4ccccc4c3CCN2C(=O)c2noc3c2CCCC3)n1 (stereo unspecified),,"inconclusive [inhibitor, single point]"
COc1ccc(C(CNC(=O)c2ccc(S(=O)(=O)Nc3ccccc3C)cc2)N2CCOCC2)cc1 (stereo unspecified),,"inconclusive [inhibitor, partial curve, poor fit]"
COc1ccccc1-c1nnc(NC(=O)c2ccc(S(=O)(=O)N3CCCC3)cc2)o1,,"inconclusive [inhibitor, single point]"
CCOP(=O)(OCC)O/C(=C/Cl)c1ccc(Cl)cc1Cl,,"inconclusive [inhibitor, single point]"
c1ccc(-c2noc(COc3ccc4c(c3)OCO4)n2)cc1,inactive: 196%,
CC(=C\c1ccccc1)/C=C1/SC(=S)N(CCC(=O)Nc2ccccn2)C1=O,,"inconclusive [inhibitor, partial curve, poor fit]"
CCOC(=O)c1ccc(NC(=O)C(=O)NCc2ccncc2)cc1,inactive: 16.8%,
CCCCn1c(N)c(N(CC(C)C)C(=O)COC(=O)c2ccccc2NCCO)c(=O)[nH]c1=O,,"inconclusive [inhibitor, partial curve, poor fit]"
CCCOc1ccc(C(=O)NCc2ccco2)cc1,,"inconclusive [inhibitor, single point]"
Cc1ncc(CO)c(/C=N/NC(=O)c2cc(O)c(O)c(O)c2)c1O,,active: 2.62 µM
CC(=O)N1CCN(C(=O)C(Cc2ccccc2)NC(=O)c2ccccc2)CC1 (stereo unspecified),inactive: -23.1%,
CC(C)[C@@H]1NC(=O)c2cc([N+](=O)[O-])cc(I)c2NCC[C@@H](C(N)=O)NC(=O)[C@H](CO)NC1=O,inactive: 0.445%,

Compound,"activity change, negative = inhibition",Potency
CC(C)(CS(=O)(=O)[O-])NC(=O)CC[N+](C)(C)CCO,inactive: 94.7%,
CCOc1ccc(/C=N/NC(=S)NC2CC3CC2C2C=CCC32)cc1 (stereo unspecified),,active: 4.15 µM
NS(=O)(=O)c1ccc(CCNc2nc(CN3CCCCC3)nc3sc4c(c23)CCC4)cc1,,active: 11.7 µM
COc1ccc(-c2noc(C3CCCN(C(=O)c4ccccc4OC)C3)n2)cc1OC (stereo unspecified),,"inconclusive [inhibitor, single point]"
C=CCn1c(O)c(N=NC(=O)c2ccc3c(c2)OCO3)c2ccccc21,,"inconclusive [inhibitor, full curve]"
COc1ccc(NC2CCCN(C(=O)c3c(C)noc3C)C2)cc1 (stereo unspecified),,"inconclusive [inhibitor, partial curve, poor fit]"
CN(C)CCC#CC(O)(c1ccccc1)c1ccccc1,,active: 11.7 µM
O=C(NCc1ccccc1Cl)C1CCN(C(=O)c2sccc2-n2cccc2)CC1,,"inconclusive [inhibitor, partial curve, poor fit]"
CCOC(=O)Cn1c(=O)oc2cc(S(=O)(=O)N3CCN(C(=O)c4ccco4)CC3)ccc21,inactive: 34.3%,
O=S(=O)(NCCOCC(F)(F)F)c1ccc2oc3ccccc3c2c1,,active: 11.7 µM
COc1ccc(-n2cnc3ccccc32)cc1,inactive: 31.7%,
Cc1ccc(C)c(OCCn2cc(/C=C(\C#N)C(=O)NCC3CCCO3)c3ccccc32)c1 (stereo unspecified),,active: 2.62 µM
CCn1c(C)[n+](Cc2ccccc2)c2ccc(Cl)cc21,,active: 7.38 µM
CN1C(=O)N(C)C(=O)C2(Cc3cc(NC(=O)c4ccccc4)ccc3N3CCCC32)C1=O (stereo unspecified),,active: 9.28 µM
O=C(CCC1CCCC1)Nc1cccn(Cc2ccccc2Br)c1=O,,"inconclusive [inhibitor, single point]"
COc1ccc(CCNC(=O)C2CCN(S(=O)(=O)N3CC(C)CC(C)C3)CC2)cc1OC (stereo unspecified),,"inconclusive [inhibitor, partial curve, poor fit]"
CCCS(=O)(=O)c1nnnn1-c1cccc(OC)c1,,"inconclusive [inhibitor, single point]"
CCOc1ccc(CCNC(=O)Cn2cccc2C(=O)c2ccccc2C)cc1OCC,,"inconclusive [inhibitor, partial curve]"
Cn1cnnc1Sc1cc(N2CCN(S(=O)(=O)c3ccc(Cl)c(Cl)c3)CC2)ccc1[N+](=O)[O-],,active: 11.7 µM
COCC(=O)N1CCC(Oc2ccc(C(=O)NC(C)c3csc(C)n3)cc2)CC1 (stereo unspecified),inactive: 36.3%,
COc1cc(OC)c(N(C)S(=O)(=O)c2cccc(C(=O)Nc3nnc(C4CC4)s3)c2)cc1Cl,,active: 13.1 µM
COCCn1c(C)cc(C(=O)COC(=O)c2n[nH]c3ccccc23)c1C,inactive: 7.7%,
CN(Cc1ccccc1)S(=O)(=O)c1ccc(N2CCCC2=O)cc1,,"inconclusive [inhibitor, single point]"
